This note sets out measurements from publication PMC6919601, “Identification of Plasmodium dipeptidyl aminopeptidase allosteric inhibitors by high throughput screening” (PLoS ONE, 2019).

The campaign covered roughly 110,000 compounds. About 230 (0.21%) showed an effect of 50% or more. The list shows a part of the results.
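Further: 30 min substrate incubation versus DMSO and 10 µM JCP410 controls.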

Sequence of DPAP1 (Q8IIJ9 whole entry, looked up): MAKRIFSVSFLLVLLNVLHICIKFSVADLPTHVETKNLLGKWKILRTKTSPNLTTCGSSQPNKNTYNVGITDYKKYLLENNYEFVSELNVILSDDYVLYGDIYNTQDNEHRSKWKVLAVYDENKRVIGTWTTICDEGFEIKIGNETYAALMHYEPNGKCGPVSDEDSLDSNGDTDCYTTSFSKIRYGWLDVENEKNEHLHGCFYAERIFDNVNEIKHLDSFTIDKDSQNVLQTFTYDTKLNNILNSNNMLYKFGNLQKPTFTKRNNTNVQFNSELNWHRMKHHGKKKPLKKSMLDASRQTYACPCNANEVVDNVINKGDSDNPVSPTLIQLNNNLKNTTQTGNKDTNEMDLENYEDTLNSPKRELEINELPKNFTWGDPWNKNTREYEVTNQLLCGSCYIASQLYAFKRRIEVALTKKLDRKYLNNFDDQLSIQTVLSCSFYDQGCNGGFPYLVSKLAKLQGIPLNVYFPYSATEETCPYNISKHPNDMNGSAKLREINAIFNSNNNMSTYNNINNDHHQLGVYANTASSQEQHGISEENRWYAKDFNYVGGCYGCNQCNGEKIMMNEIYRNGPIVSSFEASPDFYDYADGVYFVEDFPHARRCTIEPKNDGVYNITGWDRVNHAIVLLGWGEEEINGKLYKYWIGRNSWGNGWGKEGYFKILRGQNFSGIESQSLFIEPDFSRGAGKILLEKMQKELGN

The test addresses DPAP1 (Plasmodium falciparum, UniProt Q8IIJ9). Kind of test: primary screen, percent inhibition; read by cleavage of a fluorogenic dipeptide substrate; higher = more effect of the substance. Also noted: species or system P. falciparum D10 trophozoite lysates; single well.
Turning to `Cc1cccc(OCC(=O)Nc2cccc(C)c2C)c1`, the “% Inhibition @ 10 uM” value was -9%.
As to `CC(=O)c1cc(-c2ccc(C(=O)N[C@@H](CC(C)C)C(=O)NCC#N)cc2)c(Cl)s1`, the “% Inhibition @ 10 uM” value is listed as -6.98%.
For `CCCCN(C)C(=O)C1c2cc(OC)c(OC)cc2C(=O)N2CCc3ccccc3C12` (stereo not shown), the “% Inhibition @ 10 uM” value came out at 0.208%.
On to `c1cnc2c(SCc3cn4ccccc4n3)cccc2c1`, for which the “% Inhibition @ 10 uM” value is recorded as 6.08%.
Turning to `CCn1c2ccccc2c2cc(NC(=O)c3cccc(C)c3)ccc21`, the “% Inhibition @ 10 uM” value was determined as 1.57%.
Consider `COc1ccc(CN2C(=O)c3cccnc3C2=O)cc1S(=O)(=O)N(C)Cc1ccccc1`, for which the “% Inhibition @ 10 uM” value is 8.5%.
On to `CCOC(=O)N1CCC(NCCC2=CCCCC2)CC1`, for which the “% Inhibition @ 10 uM” value is -1.81%.
`CCOC(=O)c1[nH]c(C)c(C(=O)CCC2CCCC2)c1C`: the “% Inhibition @ 10 uM” value is recorded as 5.32%.
For `CCCOc1ccc(C(=O)CCNC(Cc2c[nH]c3ccccc23)C(=O)O)cc1` (stereo not shown), the “% Inhibition @ 10 uM” value is 81.9%.
In the case of `O=C1OCCN/C1=C\C(=O)c1ccc(Cl)cc1` it was 0.878%.
For `CS(=O)(=O)c1ncc(Cl)c(C(=O)Nc2sc3c(c2C(=O)NCC2CCCO2)CCCC3)n1` (stereo not shown), the “% Inhibition @ 10 uM” value is -8.43%.
In the case of `COc1ccccc1-c1c(C)nn2c(N3CCN(Cc4ccccc4)CC3)cc(C)nc12` it was -3.21%; in that of `COc1cccc2c1cc1c(=O)n(CC(=O)NCCCc3ccccc3)nc(C)n12`, -3.47%.
Regarding `Cc1ccnc(NS(=O)(=O)Cc2ccccc2)c1`, the “% Inhibition @ 10 uM” value was determined as 3.42%.
In the case of `Cc1c(C)n(C)c2ccc(C(=O)N3CCCCC3)cc12` it was -3.53%; in that of `CCOC(=O)c1cc(C)n(-c2ccc(C(=O)N3CCCCCC3)cc2)c1C`, 0.434%; in that of `COc1ccc(CCNC(=O)c2nc(Cn3nc(C)c(Br)c3C)no2)cc1OC`, -0.0678%.
Consider `Cc1cc(C(N)=O)c2cc(Br)ccc2n1`, for which the “% Inhibition @ 10 uM” value stood at 0.215%.
For `O=C(CN(Cc1ccccc1)S(=O)(=O)c1ccccc1)N1CCOCC1`, the “% Inhibition @ 10 uM” value worked out at 1.84%.
Regarding `COc1cc(CN2CCCN(C)CC2)cc2c1OCO2`, the “% Inhibition @ 10 uM” value is -6.27%.
For `Cc1cccc(C)c1NC(=O)C(NC(=O)CN1C(=O)c2ccccc2C1=O)c1ccccc1` (stereo not shown), the “% Inhibition @ 10 uM” value is -8.3%.
As for `C=CCOc1ccc(CNC2CCCCC2)cc1OC`, the “% Inhibition @ 10 uM” value was -1.63%.
`CCc1ccc(-n2nnc(-c3nsc(NC(=O)c4ccc(C)cc4)n3)c2C)cc1`: the “% Inhibition @ 10 uM” value is recorded as -7.04%.
Consider `COc1ccc(OC)c(CNCc2c(C(=O)O)n(Cc3ccccc3F)c3cc(OC)ccc23)c1`, for which the “% Inhibition @ 10 uM” value is -1.38%.
`COC(=O)c1ccc(NC(=O)c2ccc(-c3ccccc3)cc2)cc1`: the “% Inhibition @ 10 uM” value was -4.61%.
Next, `CCCCOC(=O)CCNc1nnc(O)nc1O`: -11.4%; `CC(=O)N(C(C)=O)c1c(N2CCCC2)c2ccccc2oc1=O`: 12.6%; `COc1cccc(-c2nnc3c4c5c(sc4ncn23)CCCC5)c1`: -0.85%.
With `COc1cc(Cc2nnc(C(=O)NC3CCCCCC3)o2)cc(OC)c1OC`, the “% Inhibition @ 10 uM” value is listed as -3.34%.
Turning to `CCN(CC)CCN1C(=O)C(O)=C(C(=O)c2ccc(F)cc2)C1c1ccc(C)o1` (stereo not shown), the “% Inhibition @ 10 uM” value is listed as -17.3%.
As for `CSCCC(NC(=O)c1ccccc1)c1noc(-c2ccc(C)cc2)n1` (stereo not shown), the “% Inhibition @ 10 uM” value is reported as -6.91%.
Turning to `CCCS(=O)(=O)c1nc(S(=O)(=O)c2ccc(C)cc2)c(N2CCCC2)s1`, the “% Inhibition @ 10 uM” value is on record as -2.25%.
As for `COc1cc(-c2nnc3n(Cc4ccc(C)cc4)c(=O)c4ccccc4n23)cc(OC)c1OC`, the “% Inhibition @ 10 uM” value came out at 0.00665%.
As to `CN(CCC#N)C(CNS(=O)(=O)c1ccc(Cl)cc1)c1ccccc1` (stereo not shown), the “% Inhibition @ 10 uM” value is listed as -2.4%.
For `CCCCN(C)CCNC(=O)Cn1ncc2c1-c1ccccc1OC2`, the “% Inhibition @ 10 uM” value is -6.07%.
Take `COc1ccc(C2=NOC(C(=O)Nc3cccnc3Cl)C2)cc1` (stereo not shown): the “% Inhibition @ 10 uM” value is 3.2%.
Take `CCOc1ccc(C2CC(c3ccccc3OC(F)F)n3nnnc3N2)cc1Cl` (stereo not shown): the “% Inhibition @ 10 uM” value was determined as 4.86%.
Take `O=C(O)CCC(=O)NCCc1cccc(Cl)c1`: the “% Inhibition @ 10 uM” value is listed as 2.32%.
As to `Cc1ccc2c(CNC3CCC(C)CC3)c(C(=O)O)n(Cc3ccccc3F)c2c1` (stereo not shown), the “% Inhibition @ 10 uM” value was -3.12%.
For `O=C(CSc1nc(O)c2c3c(sc2n1)CCCC3)NCCCO`, the “% Inhibition @ 10 uM” value is -4.76%.
In the case of `COc1ccc(OCC(=O)Nc2ccc(S(=O)(=O)NC3CCCCC3)cc2)cc1` it was -4.01%; in that of `Cc1cccn2c(=O)c3cc(C#N)c(=N)n(Cc4cccnc4)c3nc12`, 1.97%; in that of `C#CCn1c(-c2ccccc2)nc2ccccc21`, 4.3%.
In the case of `O=C(Nc1ccccc1NC(=O)c1ccc(Cl)cc1)c1ccc(Cl)cc1` it was 3.01%; in that of `O=C(O)c1c(-c2ccccc2)nn(-c2ccccc2)c1C(=O)O`, -5.5%; in that of `Cc1ccc(CN2C[C@@H]3C[C@H](C2)c2cccc(=O)n2C3)o1`, -0.342%.
Take `O=C(Nc1c(-c2cccs2)nc2ccccn12)c1cccc(C(F)(F)F)c1`: the “% Inhibition @ 10 uM” value is -2.74%.
Turning to `Cn1c2ccccc2n2cc(-c3ccc(F)cc3)cc12`, the “% Inhibition @ 10 uM” value was -4.03%.
For the compound `CC(=O)c1c(C)nc2c(c1-c1cccc(Br)c1)C(=O)c1ccccc1-2`, the “% Inhibition @ 10 uM” value was 0.583%.
Consider `Cc1ccc2oc(-c3ccc(C(=O)O)cc3)c(O)c(=O)c2c1`, for which the “% Inhibition @ 10 uM” value is -1.69%.
As to `CC(C)C[C@H](NC(=O)OCc1ccccc1)C(=O)NC(C#N)C1CC1` (stereo partly shown), the “% Inhibition @ 10 uM” value is reported as -0.0207%.
Take `Cc1ccc(-c2cc(C(=O)Nc3ccc(S(N)(=O)=O)cc3)c3ccccc3n2)cc1`: the “% Inhibition @ 10 uM” value is 5.85%.
On to `Cn1c(=O)c(SCc2ccccc2)c(O)c2ccccc21`, for which the “% Inhibition @ 10 uM” value was 2.32%.
With `CC(Cc1ccc(F)cc1)N1CCN(c2ncccn2)CC1` (stereo not shown), the “% Inhibition @ 10 uM” value was -1.41%.
Next, `CC1CCN(C(=O)c2ccc3c(O)nc4c(-c5ccccc5)nnn4c3c2)CC1`: -0.326%; `COc1ccc(-c2c(Cc3ccccc3)nn3c(O)c(Cl)c(C)nc23)cc1`: -1.99%; `COc1ccc(/C=C2/SC(Nc3ccc(C)cc3)=NC2=O)cc1OC`: -1.49%.
In the case of `CNC(=O)c1ccc(C)c([N+](=O)[O-])c1`, the “% Inhibition @ 10 uM” value was -3.26%.
Next, `Cc1nn(-c2ccccc2)c(-n2cccc2)c1C(=O)N1CCC(C(=O)NCCN2CCCC2)CC1`: 1.8%; `Cc1ccc(OC(C)C(=O)Nc2cccc(C)n2)cc1` (stereo not shown): -0.643%; `COc1ccc(Br)cc1CNC1=NS(=O)(=O)C(c2ccc(C(C)C)cc2)=C1C`: 5.42%.
`CCN(CC)C(=O)COc1cc(C)c(Br)c(C)c1`: the “% Inhibition @ 10 uM” value was 0.205%.
On to `COc1ccc(N2CCN(Cc3cc(Br)cs3)CC2)cc1`, for which the “% Inhibition @ 10 uM” value was 2.13%.
For the compound `C/C(Cl)=C/Cn1c(SCC(C)C)nc2c1c(=O)[nH]c(=O)n2C`, the “% Inhibition @ 10 uM” value is reported as -1.08%.
